PubChem BioAssay AID720708 (National Center for Advancing Translational Sciences (NCATS), 2013)
Screen size: about 360,000 compounds; about 660 (0.18%) were called active. This list was built around the results that the source calls inconclusive (neither active nor inactive); the mix of calls is not that of the screen. The call rests on the fitted dose curve; in most records, active means well fitted inhibition curve with a large enough effect; inconclusive means small, poorly fitted or top-dose-only effect; inactive means no such curve, though single readings can be large or run the other way. No potency is given beside an inconclusive call; the fits are too rough.

biological target: Rap guanine nucleotide exchange factor 4 (Homo sapiens) (UniProt Q8WZA2); assay: qHTS for Antagonist of cAMP-regulated guanine nucleotide exchange factor 2 (EPAC2): primary screen; settings: EPAC2 GEF exchange of Rap1B-BODIPY-GDP, fluorescence; activity, negative = inhibition: at 114 µM (top of the series) unless noted; further: nearly all actives have a fitted effect of over 45% in size
On the % scale 0 is the no-effect control and ±100 the full control effect; potency means the concentration at half of the fitted maximal effect; tags describe the fitted curve by direction and shape.

Sequence of UniProt Q8WZA2 (Q8WZA2 whole entry, looked up): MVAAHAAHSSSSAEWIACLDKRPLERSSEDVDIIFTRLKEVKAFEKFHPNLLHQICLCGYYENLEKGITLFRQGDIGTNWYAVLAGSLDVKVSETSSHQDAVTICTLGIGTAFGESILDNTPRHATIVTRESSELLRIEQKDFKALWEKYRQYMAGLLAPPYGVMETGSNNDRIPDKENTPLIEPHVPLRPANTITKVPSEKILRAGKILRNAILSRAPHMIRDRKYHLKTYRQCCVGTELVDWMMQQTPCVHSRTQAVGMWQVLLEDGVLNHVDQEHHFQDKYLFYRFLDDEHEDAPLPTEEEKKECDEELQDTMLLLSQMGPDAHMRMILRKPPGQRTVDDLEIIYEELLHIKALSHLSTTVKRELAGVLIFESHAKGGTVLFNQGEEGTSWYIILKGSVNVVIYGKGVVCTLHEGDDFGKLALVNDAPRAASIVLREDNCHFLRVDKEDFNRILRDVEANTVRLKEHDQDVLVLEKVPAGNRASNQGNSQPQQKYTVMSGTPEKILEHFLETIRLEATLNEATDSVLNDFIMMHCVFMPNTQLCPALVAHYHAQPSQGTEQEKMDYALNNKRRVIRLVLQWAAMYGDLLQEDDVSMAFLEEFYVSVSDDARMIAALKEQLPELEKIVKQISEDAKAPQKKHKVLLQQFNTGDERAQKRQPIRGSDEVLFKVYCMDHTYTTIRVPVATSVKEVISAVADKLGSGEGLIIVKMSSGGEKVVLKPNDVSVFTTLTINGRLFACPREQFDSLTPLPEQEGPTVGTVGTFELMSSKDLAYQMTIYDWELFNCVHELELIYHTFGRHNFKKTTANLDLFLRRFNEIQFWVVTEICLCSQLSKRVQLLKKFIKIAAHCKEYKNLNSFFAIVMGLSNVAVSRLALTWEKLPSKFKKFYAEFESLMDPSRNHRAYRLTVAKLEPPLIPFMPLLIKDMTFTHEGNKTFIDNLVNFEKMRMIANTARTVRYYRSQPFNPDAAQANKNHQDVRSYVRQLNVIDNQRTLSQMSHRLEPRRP

Row | Compound | activity, negative = inhibition | Potency
1 | CCOC(=O)/C(C#N)=C\c1ccc(N2CCN(C/C=C/c3ccccc3)CC2)cc1 | inactive: 69.5% | 
2 | O=c1/c(=C\c2cc([N+](=O)[O-])cc([N+](=O)[O-])c2O)sc2nc3ccccc3n12 |  | inconclusive [inhibitor, single point]
3 | O=C(Nc1ccccc1)c1ccc2nc(-c3ccco3)c(-c3ccco3)nc2c1 | inactive: -0.934% | 
4 | O=C(OCc1c(-c2ccccc2)ncc2ccccc12)c1cccs1 |  | inconclusive [inhibitor, partial curve]
5 | CCOc1ncccc1C(=O)Nc1cccc(-c2nc3cccnc3s2)c1 |  | inconclusive [inhibitor, full curve]
6 | Cc1ccc(Cc2c(C3CCCCC3)nc3ccc(C)cn23)cc1 |  | inconclusive [inhibitor, partial curve]
7 | CCCOc1ccccc1Cn1c(=O)oc2ccccc21 |  | inconclusive [inhibitor, full curve]
8 | O=C(O)c1ccc(-n2cccc2/C=N\NC(=O)c2cc3cc(Br)ccc3o2)cc1 | inactive: -10.3% | 
9 | COc1cc(OC)c(NC2=CC(=O)C(=O)c3ccccc32)cc1Cl | inactive: -8.02% | 
10 | Cc1cccc(C(=O)NC(=S)Nc2ccccc2C(=O)O)c1 | inactive: 0.554% | 
11 | CCCC1=C(C(=O)OCC)C(c2ccco2)n2ncnc2N1 (stereo not drawn) |  | inconclusive [inhibitor, partial curve]
12 | Cc1oc2c(c1C(=O)c1ccc(Cl)cc1)C(=O)C(=O)c1ccccc1-2 | inactive: -7.97% | 
13 | C=CCn1cnc2scc(-c3ccc(C)c(C)c3)c2c1=O | inconclusive: -31.6% [inhibitor] | 
14 | COc1ccc(CN(C)Cc2cc(=O)oc3cc(C)c(C(C)C)cc23)cc1OC |  | inconclusive [inhibitor, partial curve]
15 | O=C(C(Sc1ccccc1)c1ccccc1)N1CCN(c2ccccc2)CC1 (stereo not drawn) |  | inconclusive [inhibitor, single point]
16 | COc1cc(NCCC(=O)c2cccs2)c(OC)cc1Cl |  | inconclusive [inhibitor, partial curve]
17 | O=C(Nc1cccc(C(F)(F)F)c1)c1cccnc1N1CCN(CCO)CC1 | inactive: 5.13% | 
18 | Cc1cc(C)nc(Oc2ccc(Br)cc2Br)n1 |  | inconclusive [inhibitor, full curve, poor fit]
19 | Cc1cc(C)c(-c2c(N)cc(Br)cc2Br)c(N)c1 |  | inconclusive [inhibitor, partial curve]
20 | O=C(NNC(=O)c1csc(-c2ccccc2)n1)c1ccccc1 |  | inconclusive [inhibitor, partial curve]
21 | Cn1c(=O)c2c(SCc3cccnc3)nc(CC(C)(C)C)nc2n(C)c1=O |  | inconclusive [inhibitor, full curve]
22 | COc1ccccc1C1=CC(=O)C[C@H](c2ccc(F)cc2)C1 |  | inconclusive [inhibitor, partial curve]
23 | O=C1C(=C(I)I)c2ccccc2-c2ccccc21 |  | inconclusive [inhibitor, partial curve]
24 | CCCNC(=O)CCc1c(C)nc2nc(C)nn2c1C | inactive: -0.0627% | 
25 | Cc1ccc(S(=O)(=O)NN2C(=O)/C(=C/c3cccs3)SC2=S)cc1 |  | inconclusive [inhibitor, partial curve, poor fit]

Row | Compound | activity, negative = inhibition | Potency
26 | COc1cc(C=C2CN(C)C(=O)C2=O)ccc1O | inactive: -8.53% | 
27 | CNc1ncc(C(=O)c2ccc(F)cc2)s1 | inactive: -0.992% | 
28 | COC(=O)c1ccc(CSc2ccc3nnc(-c4ccccc4)n3n2)o1 |  | inconclusive [inhibitor, partial curve]
29 | Nc1ncc(Br)cc1S(=O)(=O)Nc1cc(C(F)(F)F)cc(C(F)(F)F)c1 |  | active: 15.8 µM
30 | CC(C)c1ccc(CNc2ccc([N+](=O)[O-])cn2)cc1 |  | inconclusive [inhibitor, full curve]
31 | CCc1cccc(OCC(=O)Nc2ccc(S(=O)(=O)Nc3onc(C)c3C)cc2)c1 |  | inconclusive [inhibitor, full curve, poor fit]
32 | COc1ccc(/C=C2\SC(=O)NC2=S)cc1OC | inactive: -8.89% | 
33 | Cc1ccc(NC(=S)N2CCC(NC(=O)c3ccc(F)cc3)CC2)cc1 | inactive: 12.7% | 
34 | COC(=O)[C@@H]1ON2OCC(C)=C3CCCC[C@@]32[C@H]1C(=O)OC | inactive: 2.98% | 
35 | O=C(O)CN1C(=O)/C(=C\c2cccc(OC(=O)c3ccco3)c2)SC1=S |  | inconclusive [inhibitor, partial curve]
36 | COc1ccc(C(=O)c2c(C)c3cc(C)ccc3n2CC(O)CN2CCOCC2)cc1 (stereo not drawn) |  | inconclusive [inhibitor, partial curve]
37 | CCOC(=O)Cc1csc(NS(=O)(=O)c2ccccc2)n1 | inactive: -2% | 
38 | O=C(O)C(Cc1c[nH]c2ccccc12)NS(=O)(=O)c1ccc2ccccc2c1 (stereo not drawn) |  | inconclusive [inhibitor, partial curve]
39 | CN(N=Nc1cccc([N+](=O)[O-])c1)c1ccccc1 | inactive: -14.4% | 
40 | CCN(CC(=O)Nc1ccc(OC)cc1)CC(=O)Nc1cccc(S(=O)(=O)N2CCOCC2)c1 | inactive: -14.6% | 
41 | O=S(=O)(Nc1ccccc1N1CCCCC1)c1ccc(Cl)s1 | inactive: -4.34% | 
42 | COc1cccc(C(NC(C)=O)c2nc(-c3cccc(F)c3)cs2)c1 (stereo not drawn) |  | inconclusive [inhibitor, full curve]
43 | Cc1ccc(NC(=O)CCCn2nc(C)c3c(C)n(-c4ccccc4)nc3c2=O)c(Cl)c1 | inactive: -10.9% | 
44 | CC(=O)/C(=C/c1ccc(N(C)C)cc1)C(=O)c1ccccc1 |  | inconclusive [inhibitor, single point]
45 | COc1cc2c(c(OC)c1OC)C(c1ccc3c(c1)OCO3)CC(=O)O2 (stereo not drawn) |  | active: 39.8 µM
46 | COc1ccc(C)cc1S(=O)(=O)Nc1ccc(-n2c(C)nc3ccccc3c2=O)cc1 |  | inconclusive [inhibitor, single point]
47 | CCc1nnc(NS(=O)(=O)c2ccc(NCc3cc(Cl)cc(Cl)c3O)cc2)s1 |  | active: 17.8 µM
48 | CCOC(=O)c1sc(NC(=O)CN2CC(C)OC(C)C2)nc1C (stereo not drawn) | inactive: -0.101% | 
49 | COc1ccccc1N(CC(=O)N(c1ccccc1)C(C)C)S(=O)(=O)c1cccs1 |  | inconclusive [inhibitor, single point]
50 | Cc1ccc(N=C2C(=O)Nc3ccccc32)cc1 | inactive: 11.8% | 

Row | Compound | activity, negative = inhibition | Potency
51 | C/C=C(/C)C(=O)O[C@@H]1c2cc3c(c(OC)c2-c2c(cc(OC)c(OC)c2OC)[C@@H](OC(C)=O)[C@@H](C)[C@H]1C)OCO3 |  | inconclusive [inhibitor, single point]
52 | Cc1cccc(N/C(N)=N/c2nc(CSc3ccc(Cl)cc3)cc(=O)[nH]2)c1 | inconclusive: -10.6% [inhibitor] | 
53 | COc1ccc(C(c2nnnn2CS(=O)(=O)c2ccc(C)cc2)N2CCN(c3ncccn3)CC2)cc1 (stereo not drawn) |  | inconclusive [inhibitor, full curve, poor fit]
54 | COc1cccc(C(=O)NC2CCCC2)c1 | inactive: 3.07% | 
55 | Cc1nn(C(=O)c2cccs2)c(N)c1-c1ccccc1 |  | inconclusive [inhibitor, partial curve]
56 | COc1ccc(N/N=C(/N=Nc2nc(C)cc(=O)[nH]2)c2ccccc2)cc1 | inactive: -3.29% | 
57 | COC(=O)c1ccc(C2N=C(c3cccs3)CC(c3ccccc3O)N2)cc1 (stereo not drawn) | inactive: 5.54% | 
58 | COC(=O)C[C@@H]1OC[C@H](C)N1S(=O)(=O)c1ccc(C)cc1 | inactive: 2.19% | 
59 | O=C(O)c1ccccc1/C=N/Nc1ccc(S(=O)(=O)N2CCOCC2)cc1[N+](=O)[O-] | inactive: -18.8% | 
60 | CCCCCOc1ccc(/C=C/C(=O)NCCc2nc3ccccc3[nH]2)cc1OC | inconclusive: -15.9% [inhibitor] | 
61 | Oc1c(Br)cc(Br)cc1C=NCc1ccc(F)cc1 |  | inconclusive [inhibitor, partial curve]
62 | C[C@H]1CCC[C@]2(CC(=O)c3cc(F)ccc3O2)C1 |  | inconclusive [inhibitor, single point]
63 | Cc1ccc(C2C(C(=O)c3cccs3)=C(O)C(=O)N2c2ccc(S(N)(=O)=O)cc2)cc1 (stereo not drawn) |  | inconclusive [inhibitor, partial curve]
64 | CCC1CN(C(=O)NCc2ccc(F)cc2)c2cc(C)ccc2O1 (stereo not drawn) |  | inconclusive [inhibitor, partial curve]
65 | CC(C)(C)c1ccc(OCCC(=O)OCC(=O)NC(=O)NC2CCCC2)cc1 |  | inconclusive [inhibitor, partial curve]
66 | Cc1ccc(S(=O)(=O)Nn2c(O)c(C=C3N=c4ccccc4=N3)sc2=S)cc1 |  | inconclusive [inhibitor, partial curve]
67 | O=C(C(=O)c1cc(Br)ccc1O)c1cc(Br)ccc1O |  | inconclusive [inhibitor, partial curve]
68 | c1ccc(NCc2cccc3ccccc23)nc1 |  | inconclusive [inhibitor, partial curve]
69 | Cc1ccc(-n2nc(C)c3c2C(Br)C(C)(C)CC3=O)nc1 (stereo not drawn) |  | inconclusive [inhibitor, partial curve]
70 | CCOc1ccc(CC(=O)Nc2cc(=O)n(C)c(=O)n2C)cc1 | inactive: 10.3% | 
71 | O=C(Nc1nnc(S(=O)(=O)N2CCN(c3ccc(F)cc3)CC2)s1)c1ccco1 |  | inconclusive [inhibitor, partial curve]
72 | COc1cc(CNc2cccc3[nH]c(C(F)(F)F)nc23)cc(OC)c1 |  | inconclusive [inhibitor, full curve]
73 | O=S(=O)(Cc1ccccc1)C(c1ccccc1)S(=O)(=O)Cc1ccccc1 | inactive: -1.17% | 
